# Inconclusive results are not listed. The source holds more than one record for some entries. Only these are listed. The source may hold further records. The values listed for one entry repeat one measurement across runs, samples, wells, individuals or studies.
# Test system: BDF1 mice, colon carcinoma 38 sc, T/C %
# Test: NCI In Vivo Anticancer Drug Screen. Data for tumor model Colon Carcinoma 38 (subcutaneous) in B6D2F1 (BDF1) mice
# Conditions: endpoint: median tumor weight (est.), schedule: Q07DX002 (ip), higher = larger tumour
# How it was run: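 Ratio of survival or tumor size, compound-treated animals relative to vehicle controls, in tumor-bearing mice.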
# [1] = dose: 50.0 mg/kg/injection, vehicle: saline
# [2] = dose: 800.0 mg/kg/injection, vehicle: saline
# [3] = dose: 800.0 mg/kg/injection, vehicle: Klucel (hydroxypropylcellulose) (HPC)
# [4] = dose: 100.0 mg/kg/injection, vehicle: saline with Tween-80
# [5] = dose: 50.0 mg/kg/injection, vehicle: saline with Tween-80
# [6] = dose: 25.0 mg/kg/injection, vehicle: Klucel (hydroxypropylcellulose) (HPC)
# [7] = dose: 100.0 mg/kg/injection, vehicle: Klucel (hydroxypropylcellulose) (HPC)
structure (smiles),measurement,setting,value
CSCS(=O)C[C@H](CO)NC(=O)/C=C/c1c(C)[nH]c(=O)[nH]c1=O (stereo not given in full),T/C,"dose: 0.5 mg/kg/injection, vehicle: saline",53 % of control and 111 % of control
same,T/C,"dose: 1.0 mg/kg/injection, vehicle: saline",75 % of control and 102 % of control
CC(C)C(N)C(=O)Nc1nncs1 (stereo not given),T/C,"dose: 25.0 mg/kg/injection, vehicle: saline",80 % of control and 115 % of control
same,T/C,[1],85 % of control and 112 % of control
same,T/C,[2],46 % of control and 83 % of control
C[C@]12CCC(=O)C(O)=C1CC[C@@H]1[C@@H]2CC[C@]2(C)C(=O)CC[C@@H]12,T/C,"dose: 400.0 mg/kg/injection, vehicle: Klucel (hydroxypropylcellulose) (HPC)",83 % of control and 110 % of control
same,T/C,[3],88 % of control and 156 % of control
CC(=O)Nc1ccc(/C=N/NC(N)=S)cc1,T/C,"dose: 112.0 mg/kg/injection, vehicle: saline with Tween-80",57 % of control and 183 % of control
same,T/C,"dose: 200.0 mg/kg/injection, vehicle: Klucel (hydroxypropylcellulose) (HPC)",70 % of control and 120 % of control
same,T/C,"dose: 225.0 mg/kg/injection, vehicle: saline with Tween-80",87 % of control and 153 % of control
same,T/C,[3],70 % of control and 154 % of control
same,T/C,"dose: 1600.0 mg/kg/injection, vehicle: Klucel (hydroxypropylcellulose) (HPC)",77 % of control and 120 % of control
CC(=O)NCCCCCCNC(C)=O,T/C,[1],83 % of control and 113 % of control
same,T/C,[2],77 % of control and 153 % of control
CCCCCCCCCCCCSC1=C(Cl)C(=O)C(OC)=C(OC)C1=O,T/C,"dose: 12.5 mg/kg/injection, vehicle: saline with Tween-80",77 % of control and 103 % of control
same,T/C,[4],42 % of control and 82 % of control
Nc1nnc[se]1,T/C,[5],55 % of control and 84 % of control
same,T/C,[4],45 % of control and 86 % of control
CCN(Cc1ccc(Cl)c(Cl)c1)c1ccc2nc(N)nc(N)c2c1C,T/C,"dose: 50.0 mg/kg/injection, vehicle: distilled water + Tween-80",95 % of control and 159 % of control
C1CCC2OCCOCCOC3CCCCC3OCCOCCOC2C1 (stereo not given),T/C,[6],94 % of control and 162 % of control
OC1CCCC2CCC[N-]C12.OC1CCCC2CCC[N-]C12.[Mn+2] (stereo not given),T/C,[6],36 % of control and 123 % of control
O=C(CC(=O)C(F)(F)F)c1csc2ccccc12,T/C,[6],123 % of control and 156 % of control
same,T/C,[7],66 % of control and 104 % of control
CS(=O)(=O)OCCN(CCOS(C)(=O)=O)c1ccc(C=Nc2ccc(-c3csc(COc4ccccc4)n3)cc2)cc1,T/C,"dose: 12.5 mg/kg/injection, vehicle: Klucel (hydroxypropylcellulose) (HPC)",60 % of control and 113 % of control
same,T/C,[6],66 % of control and 97 % of control
same,T/C,[7],70 % of control and 152 % of control
CCCCCCCCSC1=C(Cl)C(=O)C(OC)=C(OC)C1=O,T/C,"dose: 3.12 mg/kg/injection, vehicle: saline with Tween-80",65 % of control and 100 % of control
O=C1NC(=O)C2C3C=CC(C12)C1C2C(=O)NC(=O)C2C31 (stereo not given),T/C,[5],30 % of control and 89 % of control
same,T/C,[4],"64 % of control, 77 % of control, 101 % of control"
same,T/C,"dose: 200.0 mg/kg/injection, vehicle: saline with Tween-80","22 % of control, 34 % of control, 67 % of control"

# From PubChem BioAssay AID212 (DTP/NCI, 2004)
